Laboratory results reported in paper PMC4336329 (PLoS ONE, 2015).
Hit rate of the full screen: of about 310,000 compounds, about 2,200 (0.71%) showed an effect of 50% or more. The effect is printed as a negative number. The list shows a part of the results.

Biological target: human ether-à-go-go-related gene (hERG) potassium channel (human, UniProt Q12809)
Experiment: primary screen, population patch clamp on CHO cells stably expressing hERG

Sequence of human ether-à-go-go-related gene (hERG) potassium channel (Q12809 whole entry, looked up): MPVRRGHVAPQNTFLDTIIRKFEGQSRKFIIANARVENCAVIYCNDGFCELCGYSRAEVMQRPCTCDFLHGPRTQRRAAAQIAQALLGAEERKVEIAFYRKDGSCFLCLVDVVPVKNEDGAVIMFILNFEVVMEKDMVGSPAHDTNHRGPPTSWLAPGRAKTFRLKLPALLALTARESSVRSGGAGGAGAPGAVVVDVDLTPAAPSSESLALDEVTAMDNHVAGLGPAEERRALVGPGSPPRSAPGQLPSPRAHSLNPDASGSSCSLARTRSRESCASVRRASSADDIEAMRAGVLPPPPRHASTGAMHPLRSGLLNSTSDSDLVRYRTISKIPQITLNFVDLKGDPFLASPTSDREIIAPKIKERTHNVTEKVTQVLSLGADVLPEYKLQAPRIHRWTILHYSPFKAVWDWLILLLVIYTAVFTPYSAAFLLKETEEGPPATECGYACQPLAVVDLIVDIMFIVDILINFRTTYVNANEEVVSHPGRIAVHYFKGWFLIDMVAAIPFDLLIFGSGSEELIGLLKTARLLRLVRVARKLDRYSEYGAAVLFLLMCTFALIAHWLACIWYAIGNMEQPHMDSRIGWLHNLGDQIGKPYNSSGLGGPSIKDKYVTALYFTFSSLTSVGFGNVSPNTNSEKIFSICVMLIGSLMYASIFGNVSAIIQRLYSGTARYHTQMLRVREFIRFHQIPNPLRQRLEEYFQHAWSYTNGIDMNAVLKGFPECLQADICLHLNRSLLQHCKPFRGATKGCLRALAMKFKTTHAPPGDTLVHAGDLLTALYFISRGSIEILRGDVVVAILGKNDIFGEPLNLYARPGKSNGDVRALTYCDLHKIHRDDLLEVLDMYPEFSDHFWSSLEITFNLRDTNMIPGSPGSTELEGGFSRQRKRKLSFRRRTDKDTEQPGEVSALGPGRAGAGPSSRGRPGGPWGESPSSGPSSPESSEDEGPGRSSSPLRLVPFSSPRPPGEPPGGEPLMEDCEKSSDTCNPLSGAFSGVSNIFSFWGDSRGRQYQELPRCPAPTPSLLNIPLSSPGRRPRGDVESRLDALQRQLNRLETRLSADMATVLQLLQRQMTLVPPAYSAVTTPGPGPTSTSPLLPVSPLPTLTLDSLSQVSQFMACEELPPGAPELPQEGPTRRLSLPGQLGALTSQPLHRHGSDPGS

| SMILES | hERG current change (%, negative = inhibition) at 1uM [%] |
| --- | --- |
| CC[N+](C)(C)CC/C=C1/c2ccccc2Sc2ccc(Cl)cc21.[Br-] | 7.35 |
| CC(=O)N1c2ccccc2C(C)CC12CCCCC2 (centres unmarked) | 11.3 |
| Clc1ccc(-n2ncc3c(NCc4ccc5c(c4)OCO5)ncnc32)cc1 | 4.63 |
| O=C(Nc1ccc(S(=O)(=O)N2CCCC2)cc1)C1CC(=O)N(c2ccc(F)cc2)C1 (centres unmarked) | 12.3 |
| Nc1cc(=O)nc(SCC(=O)N2CCN(c3ccccc3)CC2)n1-c1ccc(F)cc1 | 18.4 |
| Cc1ccc(OCC(=O)N/N=C\c2ccc(-c3cccc(C(=O)O)c3)o2)c(C)c1 | 16.1 |
| C=CCOc1ccc(CN(C)Cc2nc3cc(C(F)(F)F)ccc3c(=O)[nH]2)cc1 | -2.23 |
| Cc1ccc(/C(O)=C2/C(=O)C(=O)N(CCN3CCOCC3)C2c2cccnc2)cc1 (centres unmarked) | 4.58 |
| COc1ccc([N+](=O)[O-])cc1NC(=O)CSc1nncn1-c1ccccc1 | 4.78 |
| CC1CCN(C(=O)CCc2nc3cc(S(=O)(=O)N(C)C)ccc3n2C)CC1 | 4.07 |
| Cc1nc(N2CCN(Cc3ccccc3)CC2)nc2c1CCC2 | -2.74 |
| O=C(Nc1ccc(Cl)cc1)N1CCOC12CCC1(CC2)OCCO1 | 11.2 |
| Cc1cc(C)n(CCCNC(=O)c2ccco2)n1 | 6.93 |
| CO/N=C1\CCn2c1c(C)c1ccccc12 | 13.2 |
| O=C(CN1C(=O)c2cccnc2Oc2ccc(Cl)cc21)N1CCCCCC1 | -3.81 |
| O=C(Nc1ccccc1O)c1ccc(C(=O)c2ccccc2)o1 | 10.8 |
| COc1ccccc1C(=O)Nc1ccc(C(=O)O)cc1 | 11.3 |
| O=C(Cn1nc(-c2ccc(Cl)cc2)ccc1=O)N1CCC2(CC1)OCCO2 | 1.05 |
| CS(=O)(=O)n1nc(-c2ccc(Cl)cc2)nc1N | 10.9 |
| O=C(CCc1ccccc1)Nc1cc(C(=O)O)cc(C(=O)O)c1 | 15.9 |
| COc1cc(SC)ccc1C(=O)OCC(=O)NCC(C)C | 15.3 |
| c1ccc2c(c1)OCC(c1csc3ncnc(N4CCOCC4)c13)O2 (centres unmarked) | 7.15 |
| CCCn1cnc2sc(C(N)=O)c(C)c2c1=O | 13.3 |

| SMILES | hERG current change (%, negative = inhibition) at 1uM [%] |
| --- | --- |
| CCOC(=O)CSc1nc2ccccc2c(=O)n1-c1ccc(C(=O)NCCOC)cc1 | -8.8 |
| COc1ccc(Cl)cc1NC(=O)CSc1nnc(CNC(=O)c2cccs2)o1 | 10.1 |
| CC(=O)c1sc2nsc(SCCN3CCCCC3)c2c1N | 9.52 |
| O=C(CN1C(=O)S/C(=C\c2ccc(F)cc2)C1=O)NC1C=CS(=O)(=O)C1 (centres unmarked) | 14.6 |
| Cc1cccc(OCC(=O)N/N=C/c2sc(=O)n(Cc3cccc(C(=O)O)c3)c2Cl)c1 | 6.17 |
| COc1ccc2[nH]c3c(c2c1)CCN1C(=O)N([C@@H](C)C(=O)NCc2c(F)cccc2Cl)C(=O)[C@]31C | -3.2 |
| N#CC1(NC(=O)COC(=O)CN2C(=O)c3ccccc3C2=O)CCCCC1 | -3.5 |
| COC(=O)C1CCN(C(=O)c2oc3c(Cl)cc(C)cc3c2C)CC1 | 6.99 |
| Br.O=C(Cn1c(NCCO)nc2ccccc21)c1ccc([N+](=O)[O-])cc1 | 20.2 |
| CC(OC(=O)c1cc(Br)ccc1O)C(=O)NC1(C#N)CCCCC1 (centres unmarked) | 23.2 |
| C/C(=N/NC(=O)c1ccc(C)s1)c1cccc(NC(=O)COc2ccc(Cl)cc2Cl)c1 | 9.03 |
| CCC(c1nnc(SCC(=O)Nc2ccc(N3CCOCC3)cc2)n1Cc1ccccc1)N(C)C (centres unmarked) | 11.7 |
| Cn1c(=O)oc2cc(S(=O)(=O)NCc3ccc(C(=O)O)cc3)ccc21 | 38.2 |
| COC(=O)C1=C(c2cccc(OC)c2OC)C[C@@H]2CC[C@H]1N2C(=O)N1CCOCC1 | 9.06 |
| CCc1ccc(NS(=O)(=O)c2ccc3[nH]cc(C(=O)N4CCCCC4)c(=O)c3c2)cc1 | 10.3 |
| Nc1ccc2oc(=O)c3ccccc3c2c1 | 5.87 |
| CC(C)(C)OC(=O)N1C[C@H](O)C[C@H]1C(=O)OCC(=O)c1ccc([N+](=O)[O-])cc1 | -33.8 |
| Brc1ccccc1OCCCCCN1CCCC1 | -12.3 |
| Cc1ccc(C(=O)OCN2C(=O)c3ccccc3C2=O)c(O)c1 | 15.7 |
| O=c1[nH]c(=O)n(Cc2ccco2)c(O)c1/C=N/N1CCCCC1 | 10.6 |
| CCC(C)[C@H](NC(=O)NCc1ccco1)C(=O)OC (some centres unmarked) | 3.92 |
| CNC(=O)c1c(O)c2cccc3c2n(c1=O)CC3 | 3.88 |
| O=C(CSc1nnc(-c2ccc(C(F)(F)F)cn2)o1)Nc1ccccc1Cl | 19.4 |

| SMILES | hERG current change (%, negative = inhibition) at 1uM [%] |
| --- | --- |
| CC(C)Cn1c(=O)c2sccc2n2c(CCCC(=O)N3CCC(N4CCCCC4)CC3)nnc12 | 9.03 |
| O=c1[nH]c(N/N=C/c2ccc(O)cc2)nc2ccccc12 | 13.9 |
| Cc1nn(C(=O)c2ccco2)c(C)c1Sc1ccccc1 | 9.41 |
| c1ccc(-c2nc[nH]c2-c2ccccc2)cc1 | -2.74 |
| CCCOC(=O)c1ccc(NC(=O)c2cc(OC)c(OC)c(OC)c2Br)cc1 | 19.1 |
| COc1ccccc1NC(=S)NCc1ccc2c(c1)OCO2 | 6.95 |
| O=C(CCCCCn1c(=S)[nH]c2ccc(N3CCOCC3)cc2c1=O)NC1CCN(Cc2ccccc2)CC1 | 12.8 |
| COc1ccc(NC(=O)CSc2nnnn2C2CCCCC2)c(OC)c1 | 10.4 |
| NC(=O)NC(=O)CC1S/C(=N/N=C2/NC(=O)CS2)NC1=O (centres unmarked) | 12.6 |
| CC(c1nnc(SCC(=O)Nc2ccc3[nH]c(=O)[nH]c3c2)n1Cc1ccccc1)N(C)C (centres unmarked) | 14.5 |
| CCC(C)NC(=O)c1cnn2c1NC(c1cccs1)CC2C(F)(F)F (centres unmarked) | -7.24 |
| CCOc1ccc(OCC)c(NC(=O)CCCN2C(=S)NC(C)(C)CC2C)c1 (centres unmarked) | 5.31 |
| CC1CCCC(C)N1C(=O)COc1ccc(F)cc1 (centres unmarked) | 7.88 |
| COC(=O)c1ccc(OCC(O)CNC2CCCC2)cc1.Cl (centres unmarked) | 11.7 |
| O=C(OCc1nnc(-c2ccccc2)o1)c1cc(=O)[nH]c2ccccc12 | 21.3 |
| O=C(Nc1ccc(S(=O)(=O)Nc2ncccn2)cc1)c1cncc(Br)c1 | 6.9 |
| Cc1ccc2nc3c(c(C(=O)OCC(=O)NC4CCS(=O)(=O)C4)c2c1)CCCC3 (centres unmarked) | 9.2 |
| Cc1ccccc1OCCn1c(CCNC(=O)C(C)C)nc2ccccc21 | 12.6 |
| O=C(COc1ccc(Br)cc1Br)NC1CCS(=O)(=O)C1 (centres unmarked) | 5.54 |
| COc1ccc(NC(=O)Nn2cnnc2)cc1OC | 12.9 |
| Cc1ccc(NC(=O)C(C)N2CCOCC2)c(C(=O)c2ccccc2)c1 (centres unmarked) | -0.0491 |
| OCCNc1nc(Nc2cc(Cl)ccc2OC2CCCC2)nc(N2CCCC2)n1 | 14.5 |
| O=C(CSc1nnc2ccccn12)N1CCOCC1 | 12.1 |

| SMILES | hERG current change (%, negative = inhibition) at 1uM [%] |
| --- | --- |
| COc1ccc(-c2noc(C3CCCN(S(=O)(=O)c4ccc(C)c(Cl)c4)C3)n2)cc1OC (centres unmarked) | -0.139 |
| C=CCn1c(C(CCCC)CC(O)COCC(C)C)n[nH]c1=S (centres unmarked) | 15.8 |
| COc1ccc(C)cc1NCc1ccc([N+](=O)[O-])cc1 | 11.2 |
| O=C(c1cc2sccc2n1Cc1ccc(F)cc1)N1CCN(c2nc3ccccc3s2)CC1 | 9.22 |
| O=C(CSc1ncnc2c1oc1ccccc12)Nc1cccc(Cl)c1 | -2.44 |
| O=C(CN1C(=O)NC2(CCCCC2)C1=O)NCCCSc1ccccc1 | 9.47 |
| CC(=O)Nc1cccc(NC(=O)CSc2nc(=O)n(CCN3CCOCC3)c3c2CCCC3)c1 | 8.3 |
| CCCc1cc(=O)[nH]c(SC/C=C/c2ccccc2)n1 | 16 |
| COc1ccc(S(=O)(=O)N2CN3CCN(C3)C2)cc1 | 12.3 |
| Br.c1ccc2c(c1)ncn2CCN1CCCCC1 | 12 |
| CCN(CC)C(=O)CCCC(=O)N(CC)CC | 11.9 |
| CSC1=C(C#N)C(c2ccc(C(C)C)cc2)CC(=O)N1 (centres unmarked) | 9.35 |
| Cc1ccc2c(C)c(C(=O)N3CCN(Cc4ccc5c(c4)OCO5)CC3)oc2c1C | 14.1 |
| O=C(Nc1ccc(N2CCN(C(=O)c3ccco3)CC2)cc1)c1ccccc1F | 11.6 |
| NC(=O)c1c(NC(=O)c2cccnc2)sc2c1CCCC2 | 8.63 |
| CC(CN(C)C)CN1c2ccccc2Sc2ccccc21.O=C(O)C(O)C(O)C(=O)O (centres unmarked) | -6.57 |
| COc1cccc(NS(=O)(=O)c2cc3c(cc2C)N(C)CCO3)c1 | 17.1 |
| CS(=O)(=O)c1ccccc1-c1nnc(NC(=O)c2ccc(S(=O)(=O)N3CCCC3)cc2)o1 | 16.7 |
| CCOC(=O)c1ccc(Oc2nc(NC)nc(OC)n2)cc1 | 11.8 |
| COc1ccc(C(CCNC(C)c2ccccc2)C(C)C)cc1 (centres unmarked) | 3.64 |
